Data: the supplement of paper PMC4967469
Lines with a small IC50 respond at low doses; where the fit passes the top or lowest dose, that dose stands as a limit. For AUC the same curve is integrated over the 256-fold range of doses and scaled to a fraction; the more sensitive the line, the further below 1. For part of these data: An inferred top dose comes from the curve model; the source does not state it. For part of these data: Where an entry number is given, a second screen of the drug exists; the two often differ.

What was measured:
Experiment in all cases: Viability of human cancer cell lines after 72 h of drug (GDSC screen)
[1] = compound: C/C(=C\c1csc(C)n1)[C@@H]1C[C@@H]2O[C@]2(C)CCC[C@H](C)[C@H](O)[C@@H](C)C(=O)C(C)(C)[C@@H](O)CC(=O)O1 [Epothilone B]; conditions: top dose 0.032 µM; top dose inferred
Experimental: (§1)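 Human cancer cell lines in 384-well plates, medium with 10% serum, drug for 72 h over a 256-fold dose range (nine 2-fold or five 4-fold steps up to the top dose). Adherent lines were fixed and stained with the nucleic acid dye Syto60, suspension lines read with resazurin; signal relative to control wells, capped at 0 and 100%. One two-parameter sigmoid per drug and line, fitted in a mixed model over all curves with the slope shared within a line.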

[2] = compound: CC(C)CC(=O)Nc1n[nH]c2c1CN(C(=O)C1CCN(C)CC1)C2(C)C [PHA-793887]; conditions: top dose 10.24 µM
Experimental: as §1

[3] = compound: CCCS(=O)(=O)Nc1ccc(F)c(C(=O)c2c[nH]c3ncc(Cl)cc23)c1F [PLX4720]; conditions: top dose 10 µM
Experimental: as §1

[4] = compound: C[C@@H](N)c1ccc(C(=O)Nc2ccnc3[nH]ccc23)cc1 [Y-39983]; conditions: top dose 20 µM; top dose inferred
Experimental: as §1

[5] = compound: NC(=O)Nc1sc(-c2ccc(F)cc2)cc1C(N)=O [TPCA-1]; conditions: top dose 20 µM
Experimental: as §1

[6] = screen: GDSC drug entry 1371, top dose inferred

Cell Line	AUC [1]	IC50 [1] [µM]	AUC [2]	IC50 [2] [µM]	AUC ([3]; screen: GDSC drug entry 1036)	IC50 ([3]; screen: GDSC drug entry 1036) [µM]	AUC [3, 6]	IC50 [3, 6] [µM]	AUC [4]	IC50 [4] [µM]	AUC [5]	IC50 [5] [µM]
22RV1 (prostate, adherent)	0.679	0.00717	0.878	> 10.2	0.981	> 10	0.962	> 10	0.958	> 20	0.913	> 20
42-MG-BA (glioma, adherent)	0.846	0.0259	0.941	> 10.2	0.985	> 10	0.983	> 10	0.948	> 20	0.893	> 20
201T (lung adenocarcinoma, adherent)	0.295	0.000451	0.913	> 10.2	0.962	> 10	–	–	0.956	> 20	0.828	16.9
451Lu (melanoma, adherent)	0.503	0.00204	0.949	> 10.2	0.281	0.155	0.666	1.77	0.979	> 20	0.883	19.9
639-V (bladder, adherent)	0.197	0.000304	0.931	> 10.2	0.991	> 10	0.986	> 10	0.974	> 20	0.948	> 20
647-V (bladder, adherent)	0.573	0.00318	0.872	9.81	0.987	> 10	0.986	> 10	0.987	> 20	0.846	14.7
769-P (kidney, adherent)	0.353	–	0.745	3.48	–	–	0.968	> 10	0.865	> 20	0.83	14.1
786-0 (kidney, adherent)	0.092	< 0.000125	0.719	2.52	0.94	> 10	0.987	> 10	0.927	> 20	0.828	11
5637 (bladder, adherent)	0.351	0.000807	0.891	9.98	0.936	> 10	0.962	> 10	0.933	> 20	0.823	10.4
8305C (thyroid, adherent)	0.53	0.00248	0.979	> 10.2	0.716	3.12	0.804	6.95	0.981	> 20	0.926	> 20
8505C (thyroid, adherent)	0.306	0.000549	0.822	6.46	0.926	> 10	0.976	> 10	0.966	> 20	0.877	> 20
23132-87 (stomach, adherent)	0.613	0.00415	0.808	5.55	0.986	> 10	0.985	> 10	0.909	> 20	0.834	13.7
A172 (glioma, adherent)	0.506	0.00207	0.861	8.16	0.989	> 10	0.987	> 10	0.949	> 20	0.935	> 20
A204 (rhabdomyosarcoma, adherent)	0.562	–	0.682	2.42	–	–	0.96	> 10	0.939	> 20	0.833	18.6
A375 (melanoma, adherent)	0.229	0.000393	0.991	> 10.2	–	–	–	–	0.978	> 20	–	–
A427 (non-small cell lung carcinoma, adherent)	0.382	0.000941	0.956	> 10.2	0.971	> 10	0.985	> 10	0.917	> 20	0.838	13.8
A431 (skin, adherent)	0.185	0.000241	0.979	> 10.2	0.844	6.72	0.917	> 10	0.927	> 20	0.731	5.49
A673 (rhabdomyosarcoma, adherent)	0.577	0.00318	0.988	> 10.2	0.956	> 10	0.924	> 10	0.987	> 20	0.921	> 20
A2058 (melanoma, adherent)	0.371	0.000919	0.914	> 10.2	–	–	0.934	> 10	0.985	> 20	0.976	> 20
A2780 (ovary, semi-adherent)	0.529	0.00241	0.266	0.134	0.96	> 10	0.983	> 10	0.496	1.21	0.54	1.61
ABC-1 (lung adenocarcinoma, adherent)	0.483	0.00178	0.8	6.2	–	–	0.961	> 10	0.931	> 20	0.843	18.7
ACHN (kidney, adherent)	0.401	0.00103	0.953	> 10.2	–	–	0.905	> 10	0.954	> 20	0.812	12.7
AGS (stomach, adherent)	0.532	0.00242	0.889	9.6	0.99	> 10	–	–	0.985	> 20	0.965	> 20
AN3-CA (endometrium, adherent)	0.316	0.000578	0.874	> 10.2	–	–	0.97	> 10	0.968	> 20	0.886	> 20
